We go through 11 compounds from the supplement of paper PMC4604168 (melanoma cell lines).

Some of the results follow. Most values come without repeats; read them as rough.

What all share (assay): cell count relative to DMSO control; melanoma cells; higher = more viable cells
Common to all, as to settings: library dose: low library concentration; 72 h

Test [1] relates to WM115.
In test [2] the test system is WM1716.
Test [3] deals with WM1745.
Test [4] has as its system WM3526.
Test [5] deals with WM3619.
In test [6] the test system is WM451Lu.
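Also: cell number obtained by counting DAPI-stained nuclei in high-throughput microscope images with image analysis software, screen run in 1,536-well plates.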

Turning to `COc1ccc(C2=N[C@@H](c3ccc(Cl)cc3)[C@@H](c3ccc(Cl)cc3)N2C(=O)N2CCNC(=O)C2)c(OC(C)C)c1` [Nutlin-3] + CCN(CC)CCCCNc1ncc2cc(-c3cc(OC)cc(OC)c3)c(NC(=O)NC(C)(C)C)nc2n1 [PD173074] (first compound 0.1 µM, partner dose 0.1 µM), the cell count in test [1] was found to be 79.8%; in test [2] it was 90.3%; in test [3], 89.3%; in test [4], 100%; in test [5], 87.2%; in test [6], 89.4%.
`CC(C)C[C@H](NC(=O)[C@H](Cc1ccccc1)NC(=O)c1cnccn1)B(O)O` [Bortezomib] + Cn1nnc2c(C(N)=O)ncn2c1=O [temozolomide] (first compound 0.001 µM, partner dose 2 µM): the cell count in test [1] was 108%; in test [2] it was 22.2%; in test [3], 16.7%; in test [4], 81.2%; in test [5] it was 9.07%; in test [6], 75.5%.
With `COc1ccc(C2=N[C@@H](c3ccc(Cl)cc3)[C@@H](c3ccc(Cl)cc3)N2C(=O)N2CCNC(=O)C2)c(OC(C)C)c1` [Nutlin-3] + O=C(CCCCCCC(=O)Nc1ccccc1)NO [vorinostat] (first compound 0.1 µM, partner dose 0.08 µM), the cell count in test [1] is 99.2%; in test [2], 91%; in test [3], 111%; in test [4], 101%; in test [5], 99.1%; in test [6], 81.1%.
As to `Cn1c(=O)n(-c2ccc(C(C)(C)C#N)cc2)c2c3cc(-c4cnc5ccccc5c4)ccc3ncc21` + Nc1ccn([C@@H]2O[C@H](CO)[C@@H](O)C2(F)F)c(=O)n1 [gemcitabine] (first compound 0.004 µM, partner dose 0.0004 µM), the cell count in test [1] was found to be 93%; in test [2] it was 97.1%; in test [3], 78.7%; in test [4] it was 92.7%; in test [5], 68.9%; in test [6] it was 95.7%.
For the compound `Cc1cc(Nc2cc(N3CCN(C)CC3)nc(/C=C/c3ccccc3)n2)n[nH]1` + C=C(c1ccc(C(=O)O)cc1)c1cc2c(cc1C)C(C)(C)CCC2(C)C [Bexarotene] (first compound 0.04 µM, partner dose 2 µM), the cell count was 91.4% in test [1]; 94.7% in test [2]; 84.8% in test [3]; 95.6% in test [4]; 108% in test [5]; 109% in test [6].
In the case of `Cc1cc(Nc2cc(N3CCN(C)CC3)nc(/C=C/c3ccccc3)n2)n[nH]1` + O=S(=O)(c1ccccc1)N(CC(F)(F)F)c1ccc(C(O)(C(F)(F)F)C(F)(F)F)cc1 [T0901317] (first compound 0.04 µM, partner dose 1.4 µM), the cell count stood at 86.8% in test [1]; 57.2% in test [2]; 81.1% in test [3]; 92% in test [4]; 109% in test [5]; 93.6% in test [6].
With `Cc1cc(Nc2cc(N3CCN(C)CC3)nc(/C=C/c3ccccc3)n2)n[nH]1` + Cn1nnc2c(C(N)=O)ncn2c1=O [temozolomide] (first compound 0.04 µM, partner dose 2 µM), the cell count in test [1] turned out to be 85.4%; in test [2] it was 91.8%; in test [3], 96.6%; in test [4] it was 113%; in test [5] it was 75%; in test [6] it was 66.4%.
Take `Cn1c(=O)n(-c2ccc(C(C)(C)C#N)cc2)c2c3cc(-c4cnc5ccccc5c4)ccc3ncc21` + c1cc(-c2cnn3cc(-c4ccc(OCCN5CCCCC5)cc4)cnc23)ccn1 [Dorsomorphin] (first compound 0.004 µM, partner dose 0.4 µM): the cell count was determined as 95.5% in test [1]; 95.9% in test [2]; 95.7% in test [3]; 72% in test [4]; 88.2% in test [5]; 95.7% in test [6].
As to `Cn1c(=O)n(-c2ccc(C(C)(C)C#N)cc2)c2c3cc(-c4cnc5ccccc5c4)ccc3ncc21` + Nc1nc(F)nc2c1ncn2[C@@H]1O[C@H](CO)[C@@H](O)[C@@H]1O [fludarabine] (first compound 0.004 µM, partner dose 0.2 µM), the cell count in test [1] came to 90.1%; in test [2], 84.2%; in test [3], 96.4%; in test [4] it was 36%; in test [5], 81.5%; in test [6], 64.4%.
For `COc1ccc(C2=N[C@@H](c3ccc(Cl)cc3)[C@@H](c3ccc(Cl)cc3)N2C(=O)N2CCNC(=O)C2)c(OC(C)C)c1` [Nutlin-3] + CC(C)C[C@H](NC(=O)[C@H](Cc1ccccc1)NC(=O)c1cnccn1)B(O)O [Bortezomib] (first compound 0.1 µM, partner dose 0.001 µM), the cell count in test [1] was found to be 99.7%; in test [2], 52.7%; in test [3], 92.5%; in test [4] it was 83.7%; in test [5], 36%; in test [6] it was 90.5%.
On to `Cc1cn(-c2cc(NC(=O)c3ccc(C)c(Nc4nccc(-c5cccnc5)n4)c3)cc(C(F)(F)F)c2)cn1` [nilotinib] + CS(=O)(=O)CCNCc1ccc(-c2ccc3ncnc(Nc4ccc(OCc5cccc(F)c5)c(Cl)c4)c3c2)o1 [lapatinib] (first compound 0.2 µM, partner dose 0.8 µM), for which the cell count was 108% in test [1]; 90% in test [2]; 86.7% in test [3]; 105% in test [4]; 131% in test [5]; 105% in test [6].
